# Data taken from the supplement of paper PMC11417369.
# ± gives the standard deviation of the averaged measurements. The list shows a part of the results.
# System: PfAP2-LT AP2 domain (GST-tagged)
# Test: gcPBM binding intensity (ln(normalized median fluorescence intensity)); higher = stronger DNA binding
# Outline: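 Plasmodium falciparum DNA-binding domains carrying a GST tag were expressed in E. coli and applied for 1 h, at about 25 μg on average, to an Agilent 4 × 180k array. The array held primer-extended double-stranded 36-bp intergenic genomic probes together with negative controls, and binding took place in 1× PBS with 1% milk, 0.2 mg/ml BSA, 0.5% salmon testes DNA and 0.03% Triton X-100. An Alexa488 anti-GST antibody detected bound protein, and the array was scanned at 488 nm. Binding intensity is taken as the highest Masliner-normalised natural-log median intensity across replicate spots of either probe orientation.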
row,Sequence,gcPBM binding intensity (ln)
1,TACATAAATTAAAACACACACACACTAGAAAAAAAA [CACACA_site5278],9.955 ± 0.064
2,AAAAATAAAATATATACACACATATATATATATATA [CACACA_site2943],9.765 ± 0.035
3,TTTTAAATTGGAGTGGGCAGATTGATATTATTCTTC [GTGCAC_negctrl_site191],8.95 ± 0.092
4,ACATATATATATATGTGTACATATTTATACAACAAT [XGTACX_site6660],9.12 ± 0.41
5,TTTTTAATTTTGTGGGTGCTTTCGTGTTATTATATA,9.04 ± 0.39
6,TGTCACATAATTTATGCACACAATGATTATGCTTAA [CACACA_site2358],9.01 ± 0.31
7,AAGTATAAATTAAAATGTACTTATAAAAAAAAAGAA [XGTACX_site7028],8.7 ± 0.54
8,TATGTATGTATGTATGCATGTGTAACACCTAAATAT [TGCATGCA_site361],8.99 ± 0.28
9,ACATATATTGTACATACACACCTATATAAATATCCT [CACACA_site7503],9.07 ± 0.36
10,CCATATTTCATTAATGAACACACAAAGAGGTATATA [CACACA_site8431],8.89 ± 0.52
11,TATATATATATACCAACACACATACATATATATATA [CACACA_site8530],9.38 ± 0.14
12,TAAAAAATAAAAATTGCACACTAAAAAATTACGCAC [CACACA_site9129],8.76 ± 0.41
13,GAATAAAAAATTGGCACACATAAATATATGGATATA [CACACA_site3047],8.97 ± 0.47
14,TTCAACATATTAAAAAGTACAGAATATAACATTATA [XGTACX_site1361],8.59 ± 0.47
15,AATAAATTTAGACACACACACACATATAAATAAATA [CACACA_site6531],10.1 ± 0.23
16,TATACGTGAATGACAGTGCATTTCAAAAGTATAAAA [GTGCAC_site9887],8.89 ± 0.52
17,TGTGTAATATTCTGTTGTACATAACTCATAAATAAA [XGTACX_site5308],8.46 ± 0.36
18,TATATATCCTCTGAATGTACTTGTTTAATAATGTAG [XGTACX_site4332],8.55 ± 0.47
19,ATAATATAATATATATGTACACATCCTTTTTGTGTA [XGTACX_site2879],8.96 ± 0.3
20,TAAAAGTAAAAAGGTAGTACCTAAATAATATATATA [XGTACX_site8399],8.76 ± 0.5
21,ATAAGATAGGCATATACACACATTTATTTACAGATA [CACACA_site5754],9.09 ± 0.31
22,AGTAGGCATATTGGTTGTACAAAAAAATTATGCACC [XGTACX_site8925],8.99 ± 0.53

row,Sequence,gcPBM binding intensity (ln)
1,TTTTTTTTTTCTCTCGCACACATTTTTTAAAATGAG [CACACA_site2607],8.97 ± 0.57
2,ATATTTATATAGATGTGTACATAAATATAATAACAT [XGTACX_site1681],8.93 ± 0.45
3,ATATATATATATGTTTATTTATTTGAACGATTGTGG [CACACA_negctrl_site828],9.16 ± 0.36
4,GACTCTTAAAAAATTTGTACCCACATAAATAATATA [XGTACX_site4313],8.47 ± 0.4
5,TTTGGGTATACACATACATGCATGTCCTTATATATA [TGCATGCA_site84],9.31 ± 0.39
6,ATATCATAAATTTATGCATGTTCTTTCTTCAACTCT [TGCATGCA_site992],8.91 ± 0.54
7,ATTATTTATTTATTTTTTTTTTTTTTCTCTTTTCCT [GTGCAC_negctrl_site656],8.59 ± 0.72
8,ATGATAGTAATTAATAGTACTTTTTTTGATACAAAA [XGTACX_site4288],8.43 ± 0.42
9,TCGTGTTTTAAAAAAATGAAGAAAAGTAAAAAAAAA [XGTACX_negctrl_site23],8.43 ± 0.52
10,TAATATGAATATATATGTACATACAATTTGTTATAT [XGTACX_site5815],8.92 ± 0.28
11,ATTAAATGTATGACTTGTACATAAAATAAAAAAAAA [XGTACX_site6555],8.79 ± 0.5
12,TAAAGATATAAATGCACACGTATTAAAAAAAAAATA [CACACA_site952],9.01 ± 0.44
13,TTATCATTACATGAGTGTACATTATTATATTTTTTT [XGTACX_site7845],8.91 ± 0.42
14,GAAAGAAAGAAAGAAAGTACATATAAAAATATACAT [XGTACX_site7299],8.8 ± 0.5
15,ATATATTTTTTTTTTTGTACGTATATTTATATAATT [XGTACX_site8719],8.9 ± 0.38
16,CAAGAATTAAAATAAAGTACAAAAGTAACAACTTTT [XGTACX_site1474],8.68 ± 0.52
17,AAAAAAAAGGAAAAGGGTACAAAACCATACTTACAT [XGTACX_site4783],8.96 ± 0.49
18,ATTAGTGACATTATTACACACAAAAGAAAACAGAAA [CACACA_site3984],9.13 ± 0.39
19,TGAATCTATATACAGGTGCGTAAAAAATAACTTATA,8.62 ± 0.52
20,GTATCATAAAAGTATACACACATACATACATATGTA [CACACA_site5456],9.07 ± 0.32
21,GCACACATATAATTAAACATATATTTGTATTATTTT [GTGCAC_negctrl_site327],9.03 ± 0.51
22,TGTATGATTATGTTGTGTACGTAAAATATGAAAAAT [XGTACX_site1720],8.88 ± 0.45

row,Sequence,gcPBM binding intensity (ln)
1,ATCTCTACAAAGTGCACACACGTAAAAACATATATA [CACACA_site6046],9.31 ± 0.35
2,ATTTTCCTTTAATTATGTACTTATGTAATAATAATG [XGTACX_site2612],8.62 ± 0.46
3,TTTTAATGTATATTTTGTACGTATTATTAATATTCG [XGTACX_site8453],8.82 ± 0.5
4,TATCCTAATGCTACCACACACACAAAAACAAATAAT [CACACA_site2609],9.39 ± 0.29
5,AATATTTATGGGTGCACACAAACATACATATATATA [CACACA_site3395],9.23 ± 0.49
6,CCTTACTTCTTATAAAGTACCCAATGATATACATTA [XGTACX_site1554],8.57 ± 0.45
7,ATGTTGAAAGGAAAAAATAATAAAATCGATATATTA [CACACA_negctrl_site549],8.54 ± 0.52
8,AAAAAAAAGAATAGAGCATGCAAAATATATGAAATA [TGCATGCA_site933],9.23 ± 0.56
9,AGTATATAAAATACTGTATCGATGGGGGAGGGCGCA [CACACA_negctrl_site1612],10 ± 0.44
10,ACAAATAAATAAAAAACACACACAAATAAATAAATA [CACACA_site8708],9.57 ± 0.38
11,TAATAATAAAATATTTGTACATATAAAATATGGCTG [XGTACX_site7904],8.59 ± 0.34
12,AATATAATGCAATATACACACATATATTTCTCTTTT [CACACA_site7276],8.93 ± 0.36
13,TATAAAAAATAATTATCATGAAATATATGATCATCA [TGCATGCA_negctrl_site137],8.52 ± 0.36
14,ATTATTATTTATATGATACACACGTACATATACGCA [CACACA_site3823],8.98 ± 0.4
15,TATATTTTTTATAAATGTACATGGATAGGCATAAAC [XGTACX_site8401],8.73 ± 0.4
16,TTAAAAAAAATATAATGTACTTGTAGAATTATATTT [XGTACX_site6220],8.2 ± 0.41
17,ATATGAATAAATAAAAGTACATACATAATGTATTAT [XGTACX_site5969],8.88 ± 0.45
18,TCAAAAATGAGTTACACACACACATATATATATATA [CACACA_site2229],9.87 ± 0.19
19,ATATATTTATGTATCACACACAAAAAAAAAAAATAA [CACACA_site255],9.23 ± 0.5
20,AATTTTTTTCTCCAAGTGCATTAGAACATTAACGTA [GTGCAC_site9413],8.38 ± 0.43
21,AAGCGAATATATATCACACACAAAAAAATCAGACTA [CACACA_site2108],9.34 ± 0.45
22,AACTAATAAAAAAAAAGTACACAATATGTAAATAAC [XGTACX_site5263],9.26 ± 0.43

row,Sequence,gcPBM binding intensity (ln)
1,AATTATTGTGAAGGGAAAACAAAAAAGTTTATAATT [CACACA_negctrl_site1337],8.72 ± 0.52
2,AACAAATATATTAACACACAAACATATAAACCAATG [CACACA_site3970],9.21 ± 0.37
3,TATATATTATATATATGTACATACTTTTTACGTTCA [XGTACX_site2493],9.05 ± 0.66
4,ACCACATTTTTTTTTGCATGTTGTTTAAAAAAAGGC [TGCATGCA_site137],8.58 ± 0.44
5,AAATTAATTAAATATACACACATATATAGATATATA [CACACA_site6321],8.84 ± 0.42
6,AGTATAAGCATTATTGTGCACATAATTATAATTTTT,8.91 ± 0.33
7,AGTTTAAATTAAATTACACACTACGAATAATATATT [CACACA_site7811],8.72 ± 0.4
8,AATAATGAAACAGGAAAAAAATATTGTTAAAATGTA [XGTACX_negctrl_site400],8.84 ± 0.42
9,TATATATTAATAAATAGTACCCGTGGAATTTATATT [XGTACX_site5855],8.68 ± 0.39
10,ATTGTTCTCCAAAAGTGTACGTATTATTTTTCTGGA [XGTACX_site1404],8.8 ± 0.33
11,GTTGCAATTAACACTAGTACATATAAGTAGTTTATT [XGTACX_site2063],8.9 ± 0.43
12,TATATATAATATATATGTACATAATATATTTTATAT [XGTACX_site2909],8.53 ± 0.39
13,TAAAACACTCATGGCACACATAAAACATTTTTATGA [CACACA_site3574],8.87 ± 0.48
14,TGGGAAAATAATATTTATTTTATATATAAATATATA [CACACA_negctrl_site121],8.14 ± 0.46
15,AAAATACTAGATAGGGGAAAAAAAAAAAAAAAAAAA [CACACA_negctrl_site1732],8.52 ± 0.49
16,AACATGAAAATATATGCATTTGTATATATATATATA [TGCATGCA_negctrl_site16],9.38 ± 0.18
17,TATTGTAATATTAGCACACATTACCTCACTACAAAT [CACACA_site5419],9.07 ± 0.24
18,AATAAAACCCCGAAATCACACATTAAATGAAAAATA [CACACA_site4732],9.23 ± 0.19
19,ATAAATGATAAAATTGCATGTGAATGTGAAAATATT [TGCATGCA_site251],8.99 ± 0.47
20,AAAGCACCCATGCACACACACAAAGGAAAAGAAAAA [CACACA_site6249],9.73 ± 0.38
21,TCCATATATTTTAAAAGTACACATAAAAATTATTTA [XGTACX_site8127],8.26 ± 0.37
22,AATGGAAAAATAGGCACACACACATATATACATATA [CACACA_site1298],9.79 ± 0.45
